Source: the supplement of paper PMC4604168 (melanoma cell lines)
Some of the results follow. Most values come without repeats; read them as rough.

Legend:
Assay in all cases: cell count relative to DMSO control; melanoma cells; higher = more viable cells
Settings in all cases: library dose: low library concentration; 72 h
MZ2-MEL = test system: MZ2-MEL
MeWo = test system: MeWo
RPMI7951 = test system: RPMI7951
RVH-421 = test system: RVH-421
SkMel28 = test system: SkMel28
SkMel30 = test system: SkMel30
SkMel5 = test system: SkMel5
UACC257 = test system: UACC257
UACC62 = test system: UACC62
SkMel2 = test system: SkMel2
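Note: cell number obtained by counting DAPI-stained nuclei in high-throughput microscope images with image analysis software, screen run in 1,536-well plates.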

SMILES | cell count (MZ2-MEL) [%] | cell count (MeWo) [%] | cell count (RPMI7951) [%] | cell count (RVH-421) [%] | cell count (SkMel28) [%] | cell count (SkMel30) [%] | cell count (SkMel5) [%] | cell count (UACC257) [%] | cell count (UACC62) [%] | cell count (SkMel2) [%]
CN(C)S(=O)(=O)c1ccc2c(c1)/C(=C/c1cc3c([nH]1)CCCC3)C(=O)N2 + COc1ccc2c(c1)CCC1C2CCC2(C)C(NCCCCCCN3C(=O)C=CC3=O)CCC12 [U73122] (first compound 0.4 µM, partner dose 0.4 µM) | 93.9 | 89.1 | 94.3 | 32.9 | 100 | 95 | 82.6 | 84.6 | 84.1 | –
Cc1nc(Nc2ncc(C(=O)Nc3c(C)cccc3Cl)s2)cc(N2CCN(CCO)CC2)n1 [dasatanib] + O=S(=O)(c1ccccc1)N(CC(F)(F)F)c1ccc(C(O)(C(F)(F)F)C(F)(F)F)cc1 [T0901317] (first compound 0.004 µM, partner dose 1.4 µM) | 74.6 | 95.7 | 68.2 | 77.6 | 80.1 | 90.2 | 91.9 | 79.4 | 69.1 | –
NC(=O)Nc1cc(-c2cccc(F)c2)sc1C(=O)N[C@H]1CCCNC1 + N#Cc1c(O)c2c(-c3ccc(-c4ccccc4O)cc3)csc2[nH]c1=O [A769662] (first compound 0.02 µM, partner dose 2 µM) | – | 92.9 | 99.2 | 109 | 99.8 | 122 | 95 | 121 | 106 | –
C[C@]1(c2nc3c(C(N)=O)cccc3[nH]2)CCCN1 [Veliparib] + O=c1cc(-c2cccc3c2Sc2ccccc2S3)oc(N2CCOCC2)c1 [KU55933] (first compound 1.4 µM, partner dose 1 µM) | – | 110 | 110 | 124 | 89.3 | 86.7 | 97.6 | 110 | 103 | –
CO[C@@H]1[C@H](N(C)C(=O)c2ccccc2)C[C@H]2O[C@]1(C)n1c3ccccc3c3c4c(c5c6ccccc6n2c5c31)C(=O)NC4 [Midostaurin] + CN(NC(=O)CC(=O)NN(C)C(=S)c1ccccc1)C(=S)c1ccccc1 [STA4783] (first compound 0.08 µM, partner dose 0.006 µM) | – | 77.6 | 109 | 74.3 | 97.3 | 107 | 94.8 | 74.8 | 89 | –
CN(C)S(=O)(=O)c1ccc2c(c1)/C(=C/c1cc3c([nH]1)CCCC3)C(=O)N2 + CCc1ccc(CCOc2ccc(CC3SC(=O)NC3=O)cc2)nc1 [pioglitazone] (first compound 0.4 µM, partner dose 2 µM) | 103 | 100 | 92.5 | 110 | 85.6 | 106 | 100 | 105 | 92.9 | –
Cc1nc(Nc2ncc(C(=O)Nc3c(C)cccc3Cl)s2)cc(N2CCN(CCO)CC2)n1 [dasatanib] + Oc1nc(-c2ccc(C(F)(F)F)cc2)nc2c1CSCC2 [XAV939] (first compound 0.004 µM, partner dose 2 µM) | 61.7 | 88.2 | 52.8 | 82.5 | 62.4 | 94.1 | 88.9 | 67.4 | 88.7 | –
C[C@]1(c2nc3c(C(N)=O)cccc3[nH]2)CCCN1 [Veliparib] + COc1cc2ncnc(Nc3ccc(Oc4ccccc4)cc3)c2cc1OC [SrcI1] (first compound 1.4 µM, partner dose 2 µM) | 85.3 | 77.1 | 119 | 98.1 | 77.6 | 71.7 | 99.3 | 85.4 | 70.4 | –
C[C@]1(c2nc3c(C(N)=O)cccc3[nH]2)CCCN1 [Veliparib] + CC(C)CCN1c2nc(Nc3cc(F)c(O)c(F)c3)ncc2N(C)C(=O)C1C [BID1870] (first compound 1.4 µM, partner dose 0.2 µM) | 95.6 | 83.7 | 104 | 83.3 | 83.5 | 88.4 | 105 | 74.3 | 78.9 | –
NC(=O)Nc1cc(-c2cccc(F)c2)sc1C(=O)N[C@H]1CCCNC1 + O=C(Nc1cccc(Cl)c1)Nc1ncc(CCNc2ncnc3ccsc23)s1 [SNS314] (first compound 0.02 µM, partner dose 0.0008 µM) | – | 104 | 107 | 121 | 99.4 | 136 | 101 | 97.8 | 94.1 | –
C=CCn1c(=O)c2cnc(Nc3ccc(N4CCN(C)CC4)cc3)nc2n1-c1cccc(C(C)(C)O)n1 + Oc1nc(-c2ccc(C(F)(F)F)cc2)nc2c1CSCC2 [XAV939] (first compound 0.02 µM, partner dose 2 µM) | 86.2 | 93.2 | 69.6 | 72.1 | 78 | 99.4 | 86.8 | 78.7 | 77.3 | –
Cc1nc(Nc2ncc(C(=O)Nc3c(C)cccc3Cl)s2)cc(N2CCN(CCO)CC2)n1 [dasatanib] + O=c1cc(-c2cccc3c2Sc2ccccc2S3)oc(N2CCOCC2)c1 [KU55933] (first compound 0.004 µM, partner dose 1 µM) | 78.9 | 91.8 | 65 | 98.9 | 78.7 | 79.9 | 92.4 | 82.1 | 80.9 | –
Cc1nc(Nc2ncc(C(=O)Nc3c(C)cccc3Cl)s2)cc(N2CCN(CCO)CC2)n1 [dasatanib] + CN(C)S(=O)(=O)c1ccc2c(c1)/C(=C/c1cc3c([nH]1)CCCC3)C(=O)N2 [SU6656] (first compound 0.004 µM, partner dose 0.4 µM) | – | 82.2 | 52.2 | 83 | 64.9 | 83.8 | 85.5 | 86.6 | 78.5 | 92.7
CO[C@@H]1[C@H](N(C)C(=O)c2ccccc2)C[C@H]2O[C@]1(C)n1c3ccccc3c3c4c(c5c6ccccc6n2c5c31)C(=O)NC4 [Midostaurin] + Oc1nc(-c2ccc(C(F)(F)F)cc2)nc2c1CSCC2 [XAV939] (first compound 0.08 µM, partner dose 2 µM) | – | 82 | 82.8 | 89.6 | 97.2 | 84.9 | 76.1 | 67.7 | 79 | –
NCC(=O)Nc1ccc(-n2nc(C(F)(F)F)cc2-c2ccc3c(ccc4ccccc43)c2)cc1 + COc1cc(N2CCC(N3CCN(C)CC3)CC2)ccc1Nc1ncc(Cl)c(Nc2ccccc2S(=O)(=O)C(C)C)n1 [NVP-TAE684] (first compound 1 µM, partner dose 0.08 µM) | – | 59 | 98.3 | 91.1 | 59.7 | 57.8 | 74.3 | 87.3 | 71.8 | –
C=CCn1c(=O)c2cnc(Nc3ccc(N4CCN(C)CC4)cc3)nc2n1-c1cccc(C(C)(C)O)n1 + Cc1cc([N+](=O)[O-])ccc1NS(=O)(=O)c1cc(Cl)ccc1Cl [FH535] (first compound 0.02 µM, partner dose 1 µM) | – | 85.5 | 108 | 92.8 | 104 | 101 | 77.4 | 73.1 | 79.9 | –
NCC(=O)Nc1ccc(-n2nc(C(F)(F)F)cc2-c2ccc3c(ccc4ccccc43)c2)cc1 + O=C(O)C(=O)Nc1sc2c(c1C(=O)O)CCNC2 [TCS401] (first compound 1 µM, partner dose 1.66667 µM) | 86.1 | 54.2 | 111 | 102 | 69.9 | 47.4 | 74.3 | 79.9 | 101 | –
Cc1nc(Nc2ncc(C(=O)Nc3c(C)cccc3Cl)s2)cc(N2CCN(CCO)CC2)n1 [dasatanib] + O=C(O)C(=O)Nc1sc2c(c1C(=O)O)CCNC2 [TCS401] (first compound 0.004 µM, partner dose 1.66667 µM) | 72.9 | 90.3 | 68 | 99 | 68.8 | 95.8 | 78.4 | 73.9 | 83.6 | –
NCC(=O)Nc1ccc(-n2nc(C(F)(F)F)cc2-c2ccc3c(ccc4ccccc43)c2)cc1 + O=c1cc(-c2cccc3c2Sc2ccccc2S3)oc(N2CCOCC2)c1 [KU55933] (first compound 1 µM, partner dose 1 µM) | – | 63.4 | 111 | 148 | 83.8 | 48.7 | 83.3 | 89.9 | 106 | –
NC(=O)Nc1cc(-c2cccc(F)c2)sc1C(=O)N[C@H]1CCCNC1 + O=C(Nc1ccccc1)c1cc([N+](=O)[O-])ccc1Cl [GW9662] (first compound 0.02 µM, partner dose 2 µM) | 105 | 89.1 | 103 | 105 | 101 | 86.3 | 82 | 74.8 | 73.2 | –
